Results as given in the supplement of paper PMC10126150.
Sequences with one replicate were seen in a single cluster, so their values are uncertain.

test system: ATP; assay: switch fluorescence ratio, 500 uM ATP over buffer (Cy3 cluster intensity, sum of 5 cycles each) (fold (ratio)); higher = stronger signal-on switching upon ATP binding; sequences stand for … in TCGTCGGCAGCGTCAGATGTGTATAAGAGACAGTTTTTTTTTTTTTTTTTTTTTTTTT…TC; settings: aptamer strand: ATP DNA aptamer (quencher-CACCTGGGGGAGTATTGCGGAGGAAGG + anchor), 100 nM annealed; ATP concentration: 500 uM; one replicate
Outline: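 The fluorescence ratio divides summed target-cycle Cy3 intensity by summed buffer-cycle Cy3 intensity for each cluster and is averaged per switch-domain sequence. Cy3-labelled switching-strand clusters on a modified Illumina MiSeq flow-cell were annealed to 100 nM quencher-labelled ATP aptamer, then imaged in selection buffer and again after 15 min with 500 uM ATP at 22 °C. Five such cycles were run, with NaOH stripping and re-annealing between them, and clusters outside 100-1000 RFU were excluded.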
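Note: ATP exposure 15 min at 22 °C before imaging.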

Row | Sequence | switch fluorescence ratio
1 | AGGGACTAAC | 1.06
2 | AGGGAGCCGT | 0.942
3 | AGGGAGGCTT | 1.01
4 | AGGGAGTG | 0.953
5 | AGGGATACGC | 1.02
6 | AGGGATCTCA | 1
7 | AGGGATGCCT | 0.998
8 | AGGGATGTTC | 0.961
9 | AGGGCAAGTC | 1.12
10 | AGGGCAATCG | 1.01
11 | AGGGCAGG | 1.08
12 | AGGGCGAAGC | 1.07
13 | AGGGCGGAGG | 0.981
14 | AGGGCGGGCC | 0.989
15 | AGGGCTCGTA | 1.02
16 | AGGGCTGTGG | 1.04
17 | AGGGGATACC | 1.01
18 | AGGGGCAAGG | 1.04
19 | AGGGGCGCGT | 0.968
20 | AGGGGCTTCA | 1.03
21 | AGGGGTCCAG | 1.08
22 | AGGGGTCGAT | 1.01
23 | AGGGGTGTCA | 0.984
24 | AGGGGTTCTC | 1.05
25 | AGGGTAAATG | 1.05
26 | AGGGTAATAG | 1.04

Row | Sequence | switch fluorescence ratio
27 | AGGGTATAGG | 0.998
28 | AGGGTATGGA | 1
29 | AGGGTCATG | 0.998
30 | AGGGTCGCAC | 1.01
31 | AGGGTCGCCC | 0.986
32 | AGGGTCGTTG | 0.991
33 | AGGGTGCCGG | 0.932
34 | AGGGTGCGAG | 0.965
35 | AGGGTGCTGG | 0.977
36 | AGGGTGTACA | 0.931
37 | AGGGTGTTCG | 0.953
38 | AGGGTTAATC | 1.03
39 | AGGGTTGCCT | 0.956
40 | AGGGTTGTGG | 0.976
41 | AGGGTTTCGC | 1.01
42 | AGGTAACAGG | 1.01
43 | AGGTAACATA | 1.02
44 | AGGTAACGCT | 0.999
45 | AGGTAACGGT | 1.02
46 | AGGTACCTG | 1.07
47 | AGGTAGAAAA | 1.04
48 | AGGTAGTAAA | 0.981
49 | AGGTATACAT | 0.997
50 | AGGTATACGC | 1.01
51 | AGGTATCCCC | 1.04
52 | AGGTATGTAA | 0.946

Row | Sequence | switch fluorescence ratio
53 | AGGTCACGTT | 0.987
54 | AGGTCCAAAG | 1.04
55 | AGGTCCGAG | 0.942
56 | AGGTCCGCAT | 3.4
57 | AGGTCTGGTC | 0.969
58 | AGGTGACTAA | 1.03
59 | AGGTGCTGCT | 0.926
60 | AGGTGGCAAT | 1.18
61 | AGGTGGCGCA | 0.984
62 | AGGTGGGAAG | 0.952
63 | AGGTGGGCC | 1.02
64 | AGGTGTAAT | 0.994
65 | AGGTGTCCAA | 1
66 | AGGTGTGCCT | 1.02
67 | AGGTGTGG | 0.98
68 | AGGTGTGTGA | 1.01
69 | AGGTGTTGGC | 1
70 | AGGTTAATGC | 1.2
71 | AGGTTACAGG | 1.05
72 | AGGTTAGAAA | 1.04
73 | AGGTTAGAGT | 1.03
74 | AGGTTATGC | 1.02
75 | AGGTTCAGAT | 0.975
76 | AGGTTCATGT | 0.984
77 | AGGTTCGAAT | 1.04
78 | AGGTTCGTGC | 0.99

Row | Sequence | switch fluorescence ratio
79 | AGGTTCTTTA | 0.983
80 | AGGTTGACCG | 1.03
81 | AGGTTGAG | 0.978
82 | AGGTTGATGC | 0.935
83 | AGGTTGCTGG | 0.967
84 | AGGTTTGGTA | 1.01
85 | AGTAAACTGG | 0.972
86 | AGTAAAGCTA | 1.01
87 | AGTAAATAAT | 0.95
88 | AGTAAATCTG | 0.985
89 | AGTAACAAGT | 1.05
90 | AGTAACGAAG | 1.02
91 | AGTAACGGT | 1.02
92 | AGTAACTCG | 0.966
93 | AGTAAGAGT | 1
94 | AGTAAGATA | 1.02
95 | AGTAATAGA | 0.987
96 | AGTAATTAGT | 0.93
97 | AGTAATTTAT | 0.975
98 | AGTACATACT | 1.4
99 | AGTACATAGA | 1.04
100 | AGTACTACAT | 1.07
101 | AGTACTCAAA | 1.02
102 | AGTACTGGT | 1.02
103 | AGTAGAAAGT | 0.988
104 | AGTAGATTGT | 0.96

Row | Sequence | switch fluorescence ratio
105 | AGTAGCGTAC | 1.55
106 | AGTAGCTAGT | 0.964
107 | AGTAGGACGG | 1.33
108 | AGTAGGGCCT | 0.992
109 | AGTAGTGCAA | 1.24
110 | AGTATAATTC | 0.997
111 | AGTATACAAT | 0.973
112 | AGTATACGCT | 1
113 | AGTATAGATA | 1.02
114 | AGTATATAAC | 0.984
115 | AGTATATGCA | 0.987
116 | AGTATCACT | 1.01
117 | AGTATCCGT | 0.946
118 | AGTATCTAA | 0.971
119 | AGTATGGGAG | 1.02
120 | AGTATGTCAT | 0.983
121 | AGTATTGGTC | 0.949
122 | AGTCACGCG | 1.04
123 | AGTCAGGTGG | 1.07
124 | AGTCAGTGTT | 0.995
125 | AGTCATGCCG | 1.05
126 | AGTCATTCGC | 0.993
127 | AGTCATTTGA | 0.979
128 | AGTCCATCGC | 1.04
129 | AGTCCCGGGG | 1.06
130 | AGTCCGTAGG | 1.01

Row | Sequence | switch fluorescence ratio
131 | AGTCCTAATC | 1.02
132 | AGTCCTGCCC | 1.08
133 | AGTCGCATCC | 1.15
134 | AGTCGCGGCA | 1.04
135 | AGTCGGAAAC | 0.983
136 | AGTCGGCGAG | 1.02
137 | AGTCGTACTA | 0.992
138 | AGTCGTCCCG | 0.995
139 | AGTCGTGACA | 0.996
140 | AGTCTACGCG | 1.01
141 | AGTCTACTTG | 0.991
142 | AGTCTCGATA | 0.963
143 | AGTCTGCTGA | 1.02
144 | AGTCTGTGGT | 0.937
145 | AGTCTTATGG | 1.3
146 | AGTCTTTTGA | 1.01
147 | AGTGACGGTG | 0.996
148 | AGTGAGAAAA | 0.977
149 | AGTGAGAAGG | 1
150 | AGTGAGTGAC | 0.956
151 | AGTGATAACA | 0.995
152 | AGTGATAGCG | 0.982
153 | AGTGATCTCG | 1.02
154 | AGTGCAACAT | 0.989
155 | AGTGCCTGTG | 1.1
156 | AGTGCTGTG | 0.99

Row | Sequence | switch fluorescence ratio
157 | AGTGCTGTGG | 0.948
158 | AGTGCTTAGT | 1.01
159 | AGTGGAAAT | 1.08
160 | AGTGGAAGTA | 0.995
161 | AGTGGCCGG | 0.938
162 | AGTGGGACGG | 1.02
163 | AGTGGGCAC | 0.966
164 | AGTGGGCCGA | 0.928
165 | AGTGGGGGCA | 0.985
166 | AGTGGTCTGC | 1
167 | AGTGTAACTT | 1.03
168 | AGTGTAGGAC | 0.986
169 | AGTGTAGTCC | 0.989
170 | AGTGTAGTT | 0.991
171 | AGTGTATGAC | 1
172 | AGTGTCGATA | 1
173 | AGTGTGACAA | 0.99
174 | AGTGTGCCGG | 0.96
175 | AGTGTGGCTA | 1.02
176 | AGTGTGGTCG | 1.08
177 | AGTGTTCTCA | 0.972
178 | AGTTAACACC | 1.01
179 | AGTTAACCAG | 1.01
180 | AGTTAAGCAC | 1.33
181 | AGTTAAGGCA | 1.02
182 | AGTTACCGAT | 1.05

Row | Sequence | switch fluorescence ratio
183 | AGTTAGAACA | 1.06
184 | AGTTAGACTA | 0.972
185 | AGTTATAAGC | 0.983
186 | AGTTATTCG | 0.934
187 | AGTTCAAGAG | 1.01
188 | AGTTCAGTTT | 0.979
189 | AGTTCGCGTC | 1.04
190 | AGTTGAAACG | 0.981
191 | AGTTGAAGC | 0.973
192 | AGTTGACCCG | 0.974
193 | AGTTGACGCA | 1.03
194 | AGTTGATCAA | 1.01
195 | AGTTGATCGG | 1.01
196 | AGTTGATCTG | 0.942
197 | AGTTGCATCC | 1.01
198 | AGTTGCGAGA | 0.978
199 | AGTTGCTATT | 0.99
200 | AGTTGGGATA | 0.993
201 | AGTTGGTGTC | 0.921
